In the supplement of paper PMC4967469:
Lines with a small IC50 respond at low doses; a limit (>, <) means that the fit lies beyond the doses tested. AUC sums up the same curve from the lowest dose to the 256-fold higher top dose: 1 means no effect, lower means more sensitive. For part of these data: Where the top dose is marked as inferred, it was calculated from the reported fits. For part of these data: An entry number marks a drug with two screens in the source, which often give different values.

Key:
Assay in all cases: Viability of human cancer cell lines after 72 h of drug (GDSC screen)
[1] = compound: O=C(Nc1ccc(OC(F)(F)F)cc1)c1sccc1NCc1ccnc2ccccc12 [OSI-930]; conditions: top dose 10.24 µM
Protocol: (§1)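 Human cancer cell lines in 384-well plates, medium with 10% serum, drug for 72 h over a 256-fold dose range (nine 2-fold or five 4-fold steps up to the top dose). Adherent lines were fixed and stained with the nucleic acid dye Syto60, suspension lines read with resazurin; signal relative to control wells, capped at 0 and 100%. One two-parameter sigmoid per drug and line, fitted in a mixed model over all curves with the slope shared within a line.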

[2] = compound: O=C(Nc1cccc(Nc2ncc(Br)c(NCCc3cnc[nH]3)n2)c1)N1CCCC1 [BX-912]; conditions: top dose 10.24 µM; top dose inferred
Protocol: as §1

[3] = compound: O=C(/C=C/c1ccc(CN(CCO)CCc2c[nH]c3ccccc23)cc1)NO [LAQ824]; conditions: top dose 1.024 µM; top dose inferred
Protocol: as §1

[4] = compound: CCCC(=O)OCc1ccc(OC(=O)/C=C(C)/C=C/C=C(C)/C=C/C2=C(C)CCCC2(C)C)cc1 [VNLG/124]; conditions: top dose 5.12 µM; top dose inferred
Protocol: as §1

[5] = compound: Cc1c(N)nc([C@H](CC(N)=O)NC[C@H](N)C(N)=O)nc1C(=O)N[C@H](C(=O)N[C@H](C)[C@@H](O)[C@H](C)C(=O)N[C@H](C(=O)NCCc1nc(-c2nc(C(=O)NCCC[S+](C)C)cs2)cs1)[C@@H](C)O)[C@@H](OC1OC(CO)C(O)C(O)C1OC1OC(CO)C(O)C(OC(N)=O)C1O)c1cnc[nH]1 [Bleomycin]
Protocol: as §1

[6] = compound: CC/C(=C(\c1ccccc1)c1ccc(OCCN(C)C)cc1)c1ccccc1 [Tamoxifen]; conditions: top dose 5 µM
Protocol: as §1

[7] = compound: O=S(=O)(O)c1ccc2cc(N=Nc3cc(S(=O)(=O)O)c4cccnc4c3O)ccc2c1 [NSC-87877]; conditions: top dose 16 µM; top dose inferred
Protocol: as §1

[8] = compound: Cc1ccc(NC(=O)c2ccc(CN3CCN(C)CC3)cc2)cc1Nc1nc(-c2cccnc2)cs1 [Masitinib]; conditions: top dose 20 µM
Protocol: as §1

[9] = top dose 50 µM, screen: GDSC drug entry 1378, top dose inferred
[10] = top dose 64 µM, screen: GDSC drug entry 190

Q: Which AUC [1] does the source give for 769-P (kidney, adherent) here?
A: 0.982

Q: What about the IC50 [1] of the same cell line?
A: > 10.2 µM

Q: And the AUC [2]?
A: 0.923

Q: And the IC50 [2]?
A: > 10.2 µM

Q: What about the AUC [3] of the same cell line?
A: 0.383

Q: What about the IC50 [3] of the same cell line?
A: 0.0296 µM

Q: And the AUC [4]?
A: 0.983

Q: What about the IC50 [4] of the same cell line?
A: > 5.12 µM

Q: What about the AUC [5, 9] of the same cell line?
A: 0.5

Q: What about the IC50 [5, 9] of the same cell line?
A: 3.12 µM

Q: And the AUC [5, 10]?
A: 0.163

Q: What about the IC50 [5, 10] of the same cell line?
A: 0.331 µM

Q: And the AUC [6]?
A: 0.953

Q: And the IC50 [6]?
A: > 5 µM

Q: What about the AUC [7] of the same cell line?
A: 0.976

Q: And the IC50 [7]?
A: > 16 µM

Q: And the AUC [8]?
A: 0.756

Q: What about the IC50 [8] of the same cell line?
A: 7.41 µM

Q: 786-0 (kidney, adherent) was tested. Which AUC [1] did it give?
A: 0.973

Q: What about the IC50 [1] of the same cell line?
A: > 10.2 µM

Q: And the AUC [2]?
A: 0.913

Q: What about the IC50 [2] of the same cell line?
A: > 10.2 µM

Q: And the AUC [3]?
A: 0.229

Q: And the IC50 [3]?
A: 0.0113 µM

Q: What about the AUC [4] of the same cell line?
A: 0.978

Q: And the IC50 [4]?
A: > 5.12 µM

Q: What about the AUC [5, 9] of the same cell line?
A: 0.317

Q: And the IC50 [5, 9]?
A: 1.01 µM

Q: And the AUC [5, 10]?
A: 0.067

Q: And the IC50 [5, 10]?
A: < 0.25 µM

Q: What about the AUC [6] of the same cell line?
A: 0.975

Q: And the IC50 [6]?
A: > 5 µM

Q: What about the AUC [7] of the same cell line?
A: 0.77

Q: What about the IC50 [7] of the same cell line?
A: 5.63 µM

Q: What about the AUC [8] of the same cell line?
A: 0.751

Q: What about the IC50 [8] of the same cell line?
A: 6.14 µM

Q: How did the AUC [1] turn out when A204 (rhabdomyosarcoma, adherent) was run?
A: 0.902

Q: What about the IC50 [1] of the same cell line?
A: > 10.2 µM

Q: What about the AUC [2] of the same cell line?
A: 0.56

Q: What about the IC50 [2] of the same cell line?
A: 0.982 µM

Q: And the AUC [3]?
A: 0.349

Q: What about the IC50 [3] of the same cell line?
A: 0.0215 µM

Q: What about the AUC [4] of the same cell line?
A: 0.951

Q: And the IC50 [4]?
A: > 5.12 µM

Q: And the AUC [5, 9]?
A: 0.208

Q: What about the IC50 [5, 9] of the same cell line?
A: 0.322 µM

Q: What about the AUC [5, 10] of the same cell line?
A: 0.166

Q: What about the IC50 [5, 10] of the same cell line?
A: 0.267 µM

Q: What about the AUC [6] of the same cell line?
A: 0.944

Q: What about the IC50 [6] of the same cell line?
A: > 5 µM

Q: And the AUC [7]?
A: 0.886

Q: What about the IC50 [7] of the same cell line?
A: > 16 µM

Q: What about the AUC [8] of the same cell line?
A: 0.452

Q: What about the IC50 [8] of the same cell line?
A: 0.89 µM

Q: Which results are given for BCPAP (thyroid, adherent)?
A: AUC [1]: 0.956; IC50 [1]: > 10.2 µM; AUC [2]: 0.866; IC50 [2]: 7.72 µM; AUC [3]: 0.383; IC50 [3]: 0.0315 µM; AUC [4]: 0.986; IC50 [4]: > 5.12 µM; AUC [5, 9]: 0.399; IC50 [5, 9]: 1.69 µM; AUC [5, 10]: 0.356; IC50 [5, 10]: 1.67 µM; AUC [6]: 0.988; IC50 [6]: > 5 µM; AUC [7]: 0.989; IC50 [7]: > 16 µM; AUC [8]: 0.873; IC50 [8]: 16.1 µM

Q: With “BEN (non-small cell lung carcinoma, adherent)” as the cell line, how does the AUC [1] read?
A: 0.956

Q: And the IC50 [1]?
A: > 10.2 µM

Q: And the AUC [2]?
A: 0.954

Q: What about the IC50 [2] of the same cell line?
A: > 10.2 µM

Q: And the AUC [3]?
A: 0.497

Q: What about the IC50 [3] of the same cell line?
A: 0.0627 µM

Q: What about the AUC [4] of the same cell line?
A: 0.978

Q: And the IC50 [4]?
A: > 5.12 µM

Q: What about the AUC [5, 9] of the same cell line?
A: 0.897

Q: What about the IC50 [5, 9] of the same cell line?
A: > 50 µM

Q: And the AUC [5, 10]?
A: 0.813

Q: What about the IC50 [5, 10] of the same cell line?
A: 41.1 µM

Q: And the AUC [6]?
A: 0.97

Q: What about the IC50 [6] of the same cell line?
A: > 5 µM

Q: What about the AUC [7] of the same cell line?
A: 0.943

Q: What about the IC50 [7] of the same cell line?
A: > 16 µM

Q: And the AUC [8]?
A: 0.936

Q: What about the IC50 [8] of the same cell line?
A: > 20 µM

Q: For BFTC-909 (kidney, adherent), which AUC [1] is on record?
A: 0.975

Q: And the IC50 [1]?
A: > 10.2 µM

Q: And the AUC [2]?
A: 0.933

Q: And the IC50 [2]?
A: > 10.2 µM

Q: What about the AUC [3] of the same cell line?
A: 0.43

Q: And the IC50 [3]?
A: 0.0413 µM

Q: What about the AUC [4] of the same cell line?
A: 0.984

Q: And the IC50 [4]?
A: > 5.12 µM

Q: What about the AUC [5, 9] of the same cell line?
A: 0.301

Q: And the IC50 [5, 9]?
A: 0.876 µM

Q: And the AUC [5, 10]?
A: 0.131

Q: What about the IC50 [5, 10] of the same cell line?
A: 0.282 µM

Q: What about the AUC [6] of the same cell line?
A: 0.951

Q: What about the IC50 [6] of the same cell line?
A: > 5 µM

Q: And the AUC [7]?
A: 0.988

Q: What about the IC50 [7] of the same cell line?
A: > 16 µM

Q: What about the AUC [8] of the same cell line?
A: 0.978

Q: What about the IC50 [8] of the same cell line?
A: > 20 µM

Q: With BHY (head and neck, adherent) as the cell line, how does the AUC [1] read?
A: 0.962

Q: What about the IC50 [1] of the same cell line?
A: > 10.2 µM

Q: What about the AUC [2] of the same cell line?
A: 0.89

Q: What about the IC50 [2] of the same cell line?
A: > 10.2 µM

Q: What about the AUC [3] of the same cell line?
A: 0.383

Q: What about the IC50 [3] of the same cell line?
A: 0.0305 µM

Q: And the AUC [4]?
A: 0.982

Q: What about the IC50 [4] of the same cell line?
A: > 5.12 µM

Q: And the AUC [5, 9]?
A: 0.657

Q: And the IC50 [5, 9]?
A: 8.53 µM

Q: What about the AUC [5, 10] of the same cell line?
A: 0.409

Q: What about the IC50 [5, 10] of the same cell line?
A: 2.25 µM

Q: And the AUC [6]?
A: 0.977

Q: What about the IC50 [6] of the same cell line?
A: > 5 µM

Q: And the AUC [7]?
A: 0.987

Q: What about the IC50 [7] of the same cell line?
A: > 16 µM

Q: And the AUC [8]?
A: 0.885

Q: And the IC50 [8]?
A: > 20 µM
